# Source: the supplement of paper PMC12067230
# Single values of this set are uncertain.
# Assay: amyloid nucleation score relative to library mode (yeast Sup35 reporter selection) (log enrichment difference); higher = more amyloid nucleation; sequences are the first 22 residues of the Bri2 peptide extended by up to 12 random residues
# Conditions: random library (experiment): 1;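 active = nucleation score significantly above 0 at FDR 0.05; inactive = not significantly above 0 or absent from output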
# 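Further: [psi-pin-] Saccharomyces cerevisiae expressing SupN fusions, induced by 100 µM Cu2SO4, selected 7 d at 30 °C without adenine and uracil, scored by deep sequencing of output versus input.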
row,Sequence,amyloid nucleation score
1,EASNCFAIRHFENKFAVETLICTCLLRFKFYSPY,inactive
2,EASNCFAIRHFENKFAVETLICTCRSKVWVVFWW,inactive
3,EASNCFAIRHFENKFAVETLICTCSNGCHLVLYW,inactive
4,EASNCFAIRHFENKFAVETLICTCTAHYQKGSLV,inactive
5,EASNCFAIRHFENKFAVETLICTCVL,inactive
6,EASNCFAIRHFENKFAVETLICTCWFYGS,5.22
7,EASNCFAIRHFENKFAVETLICTCYLCVQYYRWL,inactive
8,EASNCFAIRHFENKFAVETLICTD,inactive
9,EASNCFAIRHFENKFAVETLICTDAMPIGTCCLD,0.391
10,EASNCFAIRHFENKFAVETLICTDAQRGVRERPV,inactive
11,EASNCFAIRHFENKFAVETLICTDCTAL,inactive
12,EASNCFAIRHFENKFAVETLICTDEGWLWLHCQL,inactive
13,EASNCFAIRHFENKFAVETLICTDGCVSDGATVQ,inactive
14,EASNCFAIRHFENKFAVETLICTDGLGGYMWKVR,inactive
15,EASNCFAIRHFENKFAVETLICTDILVGRNGWTV,inactive
16,EASNCFAIRHFENKFAVETLICTDKGYRGSALRS,0.565
17,EASNCFAIRHFENKFAVETLICTDLRD,inactive
18,EASNCFAIRHFENKFAVETLICTDLSNVRFLCKH,8.42
19,EASNCFAIRHFENKFAVETLICTDRALR,-0.0479

row,Sequence,amyloid nucleation score
1,EASNCFAIRHFENKFAVETLICTDREYRRRAMSR,inactive
2,EASNCFAIRHFENKFAVETLICTDRGKRQVRSVA,inactive
3,EASNCFAIRHFENKFAVETLICTDSVLFASMLFR,inactive
4,EASNCFAIRHFENKFAVETLICTDT,inactive
5,EASNCFAIRHFENKFAVETLICTDTGHVSQSSEG,inactive
6,EASNCFAIRHFENKFAVETLICTDTILMTHTDRP,4.97
7,EASNCFAIRHFENKFAVETLICTDTW,inactive
8,EASNCFAIRHFENKFAVETLICTDVFKMGARSGW,7.33
9,EASNCFAIRHFENKFAVETLICTDWNSILVGGEY,inactive
10,EASNCFAIRHFENKFAVETLICTDWSTNK,inactive
11,EASNCFAIRHFENKFAVETLICTDYDTCSGLFIM,inactive
12,EASNCFAIRHFENKFAVETLICTEAEWFTYFRYV,-0.345
13,EASNCFAIRHFENKFAVETLICTECCRQRVSYRS,3.26
14,EASNCFAIRHFENKFAVETLICTEGDLAGGCVW,-0.0194
15,EASNCFAIRHFENKFAVETLICTELLYYSCAYRK,3.25
16,EASNCFAIRHFENKFAVETLICTELT,inactive
17,EASNCFAIRHFENKFAVETLICTERGSWQVHSPS,inactive
18,EASNCFAIRHFENKFAVETLICTERMNRFLCVVR,0.77
19,EASNCFAIRHFENKFAVETLICTESLANSRLTFG,-0.746

# Same assay, conditions: random library (experiment): 2
row,Sequence,amyloid nucleation score
1,EASNCFAIRHFENKFAVETLICTCLGLSCLWNLC,8.34
2,EASNCFAIRHFENKFAVETLICTCLNDFFCRFS,inactive
3,EASNCFAIRHFENKFAVETLICTCLPEGFSVFH,8.38
4,EASNCFAIRHFENKFAVETLICTCLRLNVGSVEV,inactive
5,EASNCFAIRHFENKFAVETLICTCLVLLNVRVEY,inactive
6,EASNCFAIRHFENKFAVETLICTCMGSLSLYKV,2.97
7,EASNCFAIRHFENKFAVETLICTCMVVRFSCPDV,inactive
8,EASNCFAIRHFENKFAVETLICTCPRMVIFIFQS,inactive
9,EASNCFAIRHFENKFAVETLICTCRYKVTHSCLK,5.15
10,EASNCFAIRHFENKFAVETLICTCSLLFKMTGVD,inactive
11,EASNCFAIRHFENKFAVETLICTCTRTQRELRGS,2.46
12,EASNCFAIRHFENKFAVETLICTCVGVNA,inactive
13,EASNCFAIRHFENKFAVETLICTCYCIKHSVVAG,-0.293
14,EASNCFAIRHFENKFAVETLICTDDCYTHVQVDW,inactive
15,EASNCFAIRHFENKFAVETLICTDDKELICEVMG,inactive
16,EASNCFAIRHFENKFAVETLICTDDSNESDSWNC,0.35
17,EASNCFAIRHFENKFAVETLICTDISHVKVVFAM,inactive
18,EASNCFAIRHFENKFAVETLICTDLPENGCRARG,inactive
19,EASNCFAIRHFENKFAVETLICTDNSRLKRYLID,inactive
20,EASNCFAIRHFENKFAVETLICTDRVCAAMEVAA,inactive
21,EASNCFAIRHFENKFAVETLICTDSMTRSALFNY,inactive
22,EASNCFAIRHFENKFAVETLICTDSSLNFHAWKY,7.38
23,EASNCFAIRHFENKFAVETLICTDTLYLWELGH,4.62
24,EASNCFAIRHFENKFAVETLICTEFDLLEIFNKN,3.61
25,EASNCFAIRHFENKFAVETLICTEHFLRFTSWIV,inactive
26,EASNCFAIRHFENKFAVETLICTEK,inactive
27,EASNCFAIRHFENKFAVETLICTELLGLLSVFSL,0.288
28,EASNCFAIRHFENKFAVETLICTEPECLNGVLGV,inactive
29,EASNCFAIRHFENKFAVETLICTEQLLLYCNSAF,6.3

# Same assay, conditions: random library (experiment): 3
row,Sequence,amyloid nucleation score
1,EASNCFAIRHFENKFAVETLICTCLIMARCSWME,-0.483
2,EASNCFAIRHFENKFAVETLICTCMGLVVLHQPS,7.29
3,EASNCFAIRHFENKFAVETLICTCPRRPYQFWNR,2.68
4,EASNCFAIRHFENKFAVETLICTCQR,6.1
5,EASNCFAIRHFENKFAVETLICTCRNKREQDGVE,9.14
6,EASNCFAIRHFENKFAVETLICTCRQGHWKVPSG,inactive
7,EASNCFAIRHFENKFAVETLICTCRTWLLVPCRR,inactive
8,EASNCFAIRHFENKFAVETLICTCSWGFLIGVPM,inactive
9,EASNCFAIRHFENKFAVETLICTDLRSTALKLGS,inactive
10,EASNCFAIRHFENKFAVETLICTDLVPWNGREPM,inactive
11,EASNCFAIRHFENKFAVETLICTDNKWMKSGSGW,2.99
12,EASNCFAIRHFENKFAVETLICTDRFVGLVRLWV,inactive
13,EASNCFAIRHFENKFAVETLICTDRGASLMYDYP,3.34
14,EASNCFAIRHFENKFAVETLICTDWSFRGIRTML,4.36
15,EASNCFAIRHFENKFAVETLICTEADRLPGSGSA,inactive
16,EASNCFAIRHFENKFAVETLICTEMVGLVRLGEG,inactive
17,EASNCFAIRHFENKFAVETLICTENQRGLPSGSC,inactive
18,EASNCFAIRHFENKFAVETLICTERSGGGRRRWE,inactive
